Structures are written as SMILES. In all, about 44,000 compounds went through this assay and about 340 (0.77%) were called active. Inconclusive results (about 5%) are left out. Calls follow the shape of the dose curve; as a rule, active = well fitted inhibition curve with a large enough effect; inconclusive = small, poorly fitted or top-dose-only effect; inactive = flat fitted curve, though single readings scatter. Some of the results follow.
Potency is read from the fitted curve at half-maximal effect.

This assay is described as follows: Acumen qHTS Assay for Inhibitors of the mTORC1 Signaling Pathway in MEF (Tsc2-/-, p53-/-) Cells: Sytravon. Also: nearly all actives have a fitted effect of over 50% in size.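 As to activity change, negative = inhibition: plate controls were DMSO for no effect and rapamycin for full effect.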 The settings on record: phospho-rpS6 immunofluorescence/PI, 24 h; series mostly up to 38.3 µM; activity change, negative = inhibition: at the top concentration. The procedure, abridged:
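Readout is phospho-S6 Alexa 488 signal normalized to PI per well, reported as % active cells with thresholds set from rapamycin (7.5 nM) and DMSO controls. Cells: Tsc2-/-, p53-/- MEFs, 24 hrs compound at 37 C; PI cell number serves as viability.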
(In general: In qHTS, concentration-response curves come from the screen itself.)
Regarding `CCc1ccc(NC(=O)C2CCN(S(=O)(=O)c3cccc(-c4noc(C)n4)c3)CC2)cc1`, the “activity change, negative = inhibition” value was inactive: -6%. On the same count and under the same terms, then `Cc1ccc(Cn2c(CNC(=O)c3ccc(Cl)c([N+](=O)[O-])c3)nc3cccnc32)cc1`, with inactive: -12.4%; and `CCOc1ccc(Nc2nc(C)c(NC(=O)c3cccc(F)c3)c(Nc3ccc(OCC)cc3)n2)cc1`, with inactive: -16%. As to `Cc1noc(C)c1S(=O)(=O)N(CC(=O)NCCc1ccc(Cl)cc1)c1ccc(C(C)C)cc1`, the “activity change, negative = inhibition” value is inactive: -0.781%. Regarding `CCC1Oc2ccc(C)cc2N(CC(=O)N2CCN(c3ccccc3OC)CC2)C1=O` (configuration not stated), the “activity change, negative = inhibition” value was inactive: 3.55%.

Turning to `COc1ccc(-c2cc(C)no2)cc1S(=O)(=O)NCc1cccs1`, the “activity change, negative = inhibition” value was inactive: -26.9%.

For the compound `CCc1cccc(NC(=O)CN2Cc3ccccc3C2=O)c1`, the “activity change, negative = inhibition” value is inactive: -12%. On to `CCOC(=O)c1c(S(=O)(=O)N2CCCC(C(=O)Nc3ccccn3)C2)c(C)n(C)c1C` (configuration not stated), for which the “activity change, negative = inhibition” value is inactive: -0.126%. Take `COc1cc(CNC(=O)C2CCCCN2S(=O)(=O)c2ccc(F)cc2)cc(OC)c1OC` (configuration not stated): the “activity change, negative = inhibition” value was inactive: -0.599%. With `Cc1ccc(CNC(=O)C2CCN(S(=O)(=O)c3ccc(F)cc3)CC2)cc1`, the “activity change, negative = inhibition” value is inactive: -9.99%. The same measure, in the same setting: then `CC(=O)N1CCc2c(sc3c2c(=O)n(-c2ccc(C)cc2)c(=O)n3Cc2c(F)cccc2Cl)C1`, with inactive: -1.71%.

As to `COc1ccc(CNC(=O)c2cc(-c3ccc(OC)cc3)nc3n[nH]c(-c4cccc([N+](=O)[O-])c4)c23)cc1`, the “activity change, negative = inhibition” value is inactive: 0.611%. Consider `COC(=O)c1c(NC(=O)Cc2coc3cc(C)ccc23)sc2c1CCCC2`, for which the “activity change, negative = inhibition” value is inactive: -16.2%.

As for `COc1ccccc1CNC(=O)c1cccn1-c1nnc(N2CCCCC2)s1`, the “activity change, negative = inhibition” value is inactive: -7.02%. The same measure, in the same setting: then `COc1cccc(C(=O)c2cn(CC(=O)NCc3ccccc3Cl)c3nc(C)ccc3c2=O)c1`, with inactive: -1.96%; and `CCCOc1cccc(C2c3c(oc4ccccc4c3=O)C(=O)N2c2nncs2)c1` (configuration not stated), with inactive: -4.99%; and `Cc1ccc(-c2nc(CS(=O)CC(=O)N3CCN(c4cccc(Cl)c4)CC3)c(C)o2)cc1` (configuration not stated), with inactive: -13.2%.

For the compound `Cc1ccc2cccc(NC(=O)COc3ccccc3Cl)c2n1`, the “activity change, negative = inhibition” value was inactive: 2.37%. Turning to `Cc1ccc(C)c(Cn2c(CCCNC(=O)C3CCCCC3)nc3ccccc32)c1`, the “activity change, negative = inhibition” value was inactive: -4.04%.

On to `Cc1nc(-c2cccc(NC(=O)Nc3ccccc3C(F)(F)F)c2)no1`, for which the “activity change, negative = inhibition” value is inactive: -1.36%.

For `O=C(CSc1nc2ccsc2c(=O)n1Cc1ccccc1Cl)NCc1ccc(F)cc1`, the “activity change, negative = inhibition” value is inactive: -11.8%.

For the compound `CCc1ccc(-n2c(=O)c3sc4ccccc4c3n(CC(=O)N3CCCC3)c2=O)cc1`, the “activity change, negative = inhibition” value was inactive: 1.33%. On the same count and under the same terms, the result for `CCc1ccc(NC(=O)CCCc2nnc3n(CC(C)C)c(=O)c4sccc4n23)cc1` reads inactive: 2.56%; that for `O=C(Nc1c2c(nn1-c1ccc(Cl)cc1)CS(=O)(=O)C2)c1cccc(F)c1`, inactive: 4.15%.

As for `COc1ccc(-c2nc(CNS(=O)(=O)c3ccc(Br)cc3)cs2)cc1`, the “activity change, negative = inhibition” value was inactive: 1.06%. Regarding `COC(=O)c1ccc(C2c3c(-c4ccccc4O)n[nH]c3C(=O)N2Cc2ccncc2)cc1` (configuration not stated), the “activity change, negative = inhibition” value is inactive: 1.49%. The same measure, in the same setting: then `CC(C)c1nn2c(=O)cc(COC(=O)c3ccccc3NC(=O)COc3ccccc3)nc2s1`, with inactive: 0%. As to `CC(=O)Nc1ccc(S(=O)(=O)NCCc2cn3ccsc3n2)cc1`, the “activity change, negative = inhibition” value was inactive: -18%.

`Cc1nnc(NC(=O)CSc2nccn2Cc2ccc(F)cc2)s1`: the “activity change, negative = inhibition” value was inactive: 0%. For `O=C(CSc1nc(-c2cccc(F)c2)[nH]c1-c1ccccc1)Nc1ccc2c(c1)OCCO2`, the “activity change, negative = inhibition” value was inactive: 1.68%. `CCC(=O)N1CCc2cc(OC)c(OC)cc2C1COc1ccccc1OC` (configuration not stated): the “activity change, negative = inhibition” value was inactive: 0.759%. Same read-out and setting: then `Cc1cccc(OCc2ccc(-c3nc(C#N)c(NCc4cccnc4)o3)o2)c1`, with inactive: -7.91%; and `COc1ccccc1NC(=O)CN1C(=O)C2(SCC(=O)N2c2ccc(F)c(F)c2)c2ccccc21` (configuration not stated), with inactive: -4.26%; and `Cc1nnc(NC(=O)c2nc(SCc3ccccc3F)ncc2Cl)s1`, with inactive: -1.41%.

As for `O=C(NCc1ccccc1)C(=O)Nc1ccc2nc3n(c(=O)c2c1)CCCCC3`, the “activity change, negative = inhibition” value was inactive: 1.22%. Regarding `CCc1cc(C(=O)NCc2ccccc2)no1`, the “activity change, negative = inhibition” value is inactive: 2.7%.

Take `Cc1c(C(=O)Nc2cccc(Cl)c2)oc2ccc(S(=O)(=O)N3CCCCCC3)cc12`: the “activity change, negative = inhibition” value is inactive: 19.3%. For the compound `Cc1cc(C)nc(-n2nc(C)c3c2N(C)C(=O)CC3c2ccc(Cl)cc2)n1` (configuration not stated), the “activity change, negative = inhibition” value is inactive: -9.1%. Regarding `Cc1cc(-c2ccc(S(=O)(=O)Nc3ccccc3F)s2)on1`, the “activity change, negative = inhibition” value was inactive: 1.45%.

In the case of `CC(NC(=O)Cc1ccc(NC(=O)N2CCSc3ncccc32)cc1)c1ccccc1` (configuration not stated), the “activity change, negative = inhibition” value is inactive: -4.36%. In the case of `CCCOc1ccc(C(=O)Nc2ccc(NC(=O)c3ccccc3)c(Br)c2)cc1`, the Potency was active: 18.5 µM. Regarding `O=C(CN1C(=O)COc2ccc(S(=O)(=O)NC3CCCC3)cc21)Nc1ccc(Cl)cc1`, the “activity change, negative = inhibition” value was inactive: 0.998%. Regarding `CCOC(=O)c1[nH]c(C)c(C(=O)NC(CC)Cc2ccccc2)c1C` (configuration not stated), the “activity change, negative = inhibition” value was inactive: 0.24%.

In the case of `O=C(Nc1cccc(-c2cn3cccnc3n2)c1)c1cc(Br)ccc1Cl`, the “activity change, negative = inhibition” value was inactive: -3.34%. Turning to `COc1ccc(C(=O)Nc2cc(C)c(O)c(-c3nc4ccccc4s3)c2)cc1OC`, the “activity change, negative = inhibition” value was inactive: -2.39%. Consider `Cc1ccc(C)c(NC(=O)Cn2c(=O)n(CC3CCCO3)c(=O)c3ccccc32)c1` (configuration not stated), for which the “activity change, negative = inhibition” value is inactive: -17.7%. Consider `CC(=O)Nc1ccc(NC(=O)CSc2nc3ccccc3nc2N2CCCCC2)cc1`, for which the “activity change, negative = inhibition” value was inactive: 2.23%.

(Values after PubChem BioAssay AID493208 (National Center for Advancing Translational Sciences (NCATS), 2011).)
